Reference: patent US20160003808A1, “MOLECULAR TARGETS AND COMPOUNDS, AND METHODS TO IDENTIFY THE SAME, USEFUL IN THE TREATMENT OF DISEASES ASSOCIATED WITH EPITHELIAL MESENCHYMAL TRANSITION” (GALAPAGOS NV, priority 2013, published 2016)

How the values were obtained:
HBEC [1] = test: CellTiter-Blue (CTB) cell viability assay in on target screen; settings: 0.04 μM staurosporin, CTB fluorescence, standard curve
HBEC [2] = test: ATPlite secondary toxicity assay; settings: 0.06 μM staurosporin

CN[C@@H]1C[C@H]2O[C@@](C)([C@@H]1OC)n1c3ccccc3c3c4c(c5c6ccccc6n2c5c31)C(=O)NC4 [staurosporin]
decrease in cell viability compared to trigger only cells (HBEC [1]): 30%
decrease in cell viability compared to trigger only (HBEC [2]): 30%
